Assay results taken from PubChem BioAssay (NCI).
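Step 1: Grow cells in 96-well plates. Step 2: Expose to compound for 48 hours at 5 concentrations. Step 3: Interpolate endpoints linearly; if unreached, use highest concentration. GI50 = concentration required for 50% inhibition of growth.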 Certain results were filed several times, with different values. They are shown here; other results are not. An entry can have further records. For part of these data: Results that share an entry repeat one measurement in other runs, samples, wells, individuals or studies. Records carry a tag for their origin. A, B and so on number the origins entry by entry.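 TGI is the concentration that stops growth completely.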 For part of these data: A record mostly stands for its own series of concentrations, which the source does not state; some values may only mark the edge of a range.

Tests used:
Experiment in all cases: growth of human tumour cells (NCI), 48 h
HOP-62 NSCLC = tested on: HOP-62 NSCLC
786-0 renal = tested on: 786-0 renal
ACHN renal = tested on: ACHN renal
CAKI-1 renal = tested on: CAKI-1 renal
CCRF-CEM leukemia = tested on: CCRF-CEM leukemia
DMS 114 small cell lung = tested on: DMS 114 small cell lung
DMS 273 small cell lung = tested on: DMS 273 small cell lung
HCC-2998 colon = tested on: HCC-2998 colon
HCT-116 colon = tested on: HCT-116 colon
HL-60(TB) leukemia = tested on: HL-60(TB) leukemia
HT29 colon = tested on: HT29 colon
IGROV1 ovarian = tested on: IGROV1 ovarian
KM12 colon = tested on: KM12 colon
M14 melanoma = tested on: M14 melanoma
MALME-3M melanoma = tested on: MALME-3M melanoma
MOLT-4 leukemia = tested on: MOLT-4 leukemia
NCI-H460 lung = tested on: NCI-H460 lung
NCI-H522 lung = tested on: NCI-H522 lung
OVCAR-5 ovarian = tested on: OVCAR-5 ovarian
RXF 393 renal = tested on: RXF 393 renal
SF-295 CNS = tested on: SF-295 CNS
SF-539 CNS = tested on: SF-539 CNS
SK-MEL-2 melanoma = tested on: SK-MEL-2 melanoma
SK-MEL-28 melanoma = tested on: SK-MEL-28 melanoma
SR leukemia = tested on: SR leukemia
SW-620 colon = tested on: SW-620 colon
U251 CNS = tested on: U251 CNS
UACC-257 melanoma = tested on: UACC-257 melanoma
UO-31 renal = tested on: UO-31 renal
XF 498 CNS = tested on: XF 498 CNS
MDA-MB-231 breast = tested on: MDA-MB-231 breast
SK-MEL-5 melanoma = tested on: SK-MEL-5 melanoma
SK-OV-3 ovarian = tested on: SK-OV-3 ovarian

O=C1NC(=O)C2C3C=CC(C12)C1C2C(=O)NC(=O)C2C31 (configuration not stated)
TGI (HOP-62 NSCLC): 86.4 µM and > 1 mM

C/C=C(/CCC1NCCc2c1[nH]c1ccccc21)[Si](C)(C)C (configuration not stated)
TGI (786-0 renal): > 100 µM [sample A, 1 test] and 4.67 µM [sample B, 1 test] | GI50 (ACHN renal): > 100 µM [sample A, 1 test] and 9.03 µM [sample B, mean of 2 tests] | GI50 (CAKI-1 renal): > 100 µM [sample A, 1 test] and 6.24 µM [sample B, mean of 2 tests] | GI50 (CCRF-CEM leukemia): > 100 µM [sample A, 1 test] and 3.32 µM [sample B, mean of 2 tests] | TGI (DMS 114 small cell lung): > 100 µM [sample A, 1 test] and 4.18 µM [sample B, mean of 2 tests] | GI50 (DMS 273 small cell lung): > 100 µM [sample A, 1 test] and 4.2 µM [sample B, mean of 2 tests] | TGI (HCC-2998 colon): > 100 µM [sample A, 1 test] and 3.21 µM [sample B, 1 test] | TGI (HCT-116 colon): > 100 µM [sample A, 1 test] and 5.15 µM [sample B, mean of 2 tests] | TGI (HL-60(TB) leukemia): > 100 µM [sample A, 1 test] and 4.45 µM [sample B, mean of 2 tests] | TGI (HT29 colon): > 100 µM [sample A, 1 test] and 6.37 µM [sample B, mean of 2 tests] | GI50 (IGROV1 ovarian): > 100 µM [sample A, 1 test] and 7.22 µM [sample B, mean of 2 tests] | GI50 (KM12 colon): > 100 µM [sample A, 1 test] and 3.57 µM [sample B, mean of 2 tests] | TGI (M14 melanoma): 46 µM [sample A, 1 test] and 3.24 µM [sample B, mean of 2 tests] | TGI (MALME-3M melanoma): > 100 µM [sample A] and 3.41 µM [sample B] | TGI (MOLT-4 leukemia): > 100 µM [sample A] and 7.38 µM [sample B] | GI50 (NCI-H460 lung): > 100 µM [sample A, 1 test] and 3.38 µM [sample B, mean of 2 tests] | TGI (NCI-H460 lung): > 100 µM [sample A, 1 test] and 8.6 µM [sample B, mean of 2 tests] | GI50 (NCI-H522 lung): > 100 µM [sample A, 1 test] and 1.86 µM [sample B, mean of 2 tests] | TGI (NCI-H522 lung): > 100 µM [sample A, 1 test] and 3.48 µM [sample B, mean of 2 tests] | GI50 (OVCAR-5 ovarian): > 100 µM [sample A, 1 test] and 4.3 µM [sample B, mean of 2 tests] | GI50 (RXF 393 renal): > 100 µM [sample A, 1 test] and 3.08 µM [sample B, mean of 2 tests] | TGI (RXF 393 renal): > 100 µM [sample A, 1 test] and 8.61 µM [sample B, mean of 2 tests] | GI50 (SF-295 CNS): > 100 µM [sample A, 1 test] and 7.01 µM [sample B, mean of 2 tests] | GI50 (SF-539 CNS): > 100 µM [sample A, 1 test] and 5 µM [sample B, mean of 2 tests] | GI50 (SK-MEL-2 melanoma): > 100 µM [sample A, 1 test] and 2.85 µM [sample B, mean of 2 tests] | TGI (SK-MEL-2 melanoma): > 100 µM [sample A, 1 test] and 7.79 µM [sample B, mean of 2 tests] | GI50 (SK-MEL-28 melanoma): > 100 µM [sample A, 1 test] and 2.67 µM [sample B, mean of 2 tests] | TGI (SK-MEL-28 melanoma): > 100 µM [sample A, 1 test] and 5.9 µM [sample B, mean of 2 tests] | TGI (SR leukemia): > 100 µM [sample A, 1 test] and 9.86 µM [sample B, 1 test] | GI50 (SW-620 colon): > 100 µM [sample A, 1 test] and 2.57 µM [sample B, mean of 2 tests] | TGI (SW-620 colon): > 100 µM [sample A, 1 test] and 6.58 µM [sample B, mean of 2 tests] | GI50 (U251 CNS): > 100 µM [sample A, 1 test] and 3.81 µM [sample B, mean of 2 tests] | TGI (UACC-257 melanoma): > 100 µM [sample A, 1 test] and 9.15 µM [sample B, mean of 2 tests] | GI50 (UO-31 renal): > 100 µM [sample A, 1 test] and 4.01 µM [sample B, mean of 2 tests] | TGI (XF 498 CNS): > 100 µM [sample A] and 3.41 µM [sample B]

Cc1cnc2[nH]c(-c3cccc4ccccc34)cc(=O)c2c1
TGI (MDA-MB-231 breast): 95.5 nM and > 100 µM | TGI (SF-539 CNS): 19.4 nM and > 100 µM | TGI (SK-MEL-5 melanoma): 1.01 nM and 106 nM

CNS(=O)(=O)Nc1nccc(Cc2c(C)c3ccc(Oc4ncccn4)cc3oc2=O)c1F
GI50 (HOP-62 NSCLC): 2.09 µM [sample A, mean of 2 tests] and 95.5 nM [sample B, mean of 2 tests] | TGI (SK-MEL-28 melanoma): > 100 µM [sample A, mean of 2 tests] and 226 nM [sample B, 1 test] | GI50 (SK-OV-3 ovarian): > 100 µM [sample A, mean of 2 tests] and 9.9 µM [sample B, mean of 2 tests]
